Data taken from patent US20150368316A1 (ALBERT EINSTEIN COLLEGE OF MEDICINE OF YESHIVA UNIVERSITY, published 2015).

T1: human PD-L2-Ig (immobilized) (human, UniProt Q9BQ51 20-219)
T1 construct: also called huPD-L2; huPD-L2-Ig; not shown: Ig part of the fusion
T1 sequence (looked up): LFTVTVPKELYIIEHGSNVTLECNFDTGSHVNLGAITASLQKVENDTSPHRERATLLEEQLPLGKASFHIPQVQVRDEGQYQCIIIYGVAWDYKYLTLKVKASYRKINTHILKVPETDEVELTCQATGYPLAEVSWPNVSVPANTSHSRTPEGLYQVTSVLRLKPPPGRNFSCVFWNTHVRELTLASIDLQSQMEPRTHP

T2: mouse PD-L2-Ig (mouse, UniProt Q9WUL5 20-219)
T2 construct: also called mPD-L2-Ig; not shown: Ig part of the fusion
T2 sequence (looked up): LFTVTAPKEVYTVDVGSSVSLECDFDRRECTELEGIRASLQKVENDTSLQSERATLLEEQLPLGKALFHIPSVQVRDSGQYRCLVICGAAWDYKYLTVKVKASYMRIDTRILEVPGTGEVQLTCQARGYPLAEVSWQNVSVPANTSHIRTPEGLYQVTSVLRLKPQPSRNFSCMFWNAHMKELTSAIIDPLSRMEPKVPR

T3: human PD-L2 on mature human monocyte-derived dendritic cells (human, UniProt Q9BQ51 20-273)
T3 construct: whole, on cells
T3 sequence (looked up): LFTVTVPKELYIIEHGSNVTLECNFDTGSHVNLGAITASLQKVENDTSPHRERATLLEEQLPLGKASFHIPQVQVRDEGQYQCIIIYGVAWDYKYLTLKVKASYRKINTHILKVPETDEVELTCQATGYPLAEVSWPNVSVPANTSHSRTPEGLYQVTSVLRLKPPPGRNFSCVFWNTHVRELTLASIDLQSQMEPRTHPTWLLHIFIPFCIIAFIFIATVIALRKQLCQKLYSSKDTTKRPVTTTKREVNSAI


How the values were obtained:
[1] = biological target: T1, human PD-L2-Ig (immobilized); assay: SPR, equilibrium fit; immobilized ligand, soluble PD-1
Method: The A132 mutant PD-1 was made and the binding affinities of wild-type and A132 mutant PD-1 to PD-L1 and PD-L2 were compared. […] Also see Table 2.
Equilibrium dissociation constants (Kds) were determined by non-linear fitting of SPR data, using immobilized PD-Ligands and soluble wild-type or mutant PD-1. Kd values are in μM concentration, followed by the standard errors of the fittings.

[2] = biological target: T1, human PD-L2-Ig (immobilized); assay: Kd from fitting (SPR)
mouse PD-L1-Ig = biological target: T4, mouse PD-L1-Ig (mouse, UniProt Q9EP73 part only); assay: Kd from fitting (SPR)
T4 construct: also called mPD-L1-Ig; not shown: Ig part of the fusion

mouse PD-L2-Ig = biological target: T2, mouse PD-L2-Ig; assay: Kd from fitting (SPR)
[3] = biological target: T5, human PD-L1 on mature human monocyte-derived dendritic cells (human, UniProt Q9NZQ7); assay: flow cytometry on mature DCs expressing PD-L1 and PD-L2; against wild-type PD-1 Ig
T5 construct: whole, on cells
Method: (§1) FIG. 2A-2B. […] Monocytes were obtained from PBMCs of healthy donors and differentiated into dendritic cells over 5 days in the presence of GM-CSF and IL-4, then treated with TNF-α to promote the formation of “mature” dendritic cells. […] Blue histograms: PD-L1 or PD-L2 antibody staining; red histograms: isotype controls. B) Increased binding of HA PD-1 Ig to “mature” human DCs. Kd value is calculated from the mean fluorescence intensities (MFI) of Ig fusion protein binding, as detected by flow cytometry.
(§2) Blue histograms: PD-L1 or PD-L2 antibody staining; red histograms: isotype controls. […] Kd value is calculated from the mean fluorescence intensities (MFI) of Ig fusion protein binding, as detected by flow cytometry.

[4] = biological target: T3, human PD-L2 on mature human …; assay: as above
Method: as §1, §2

Sequence of mouse PD-L1-Ig (Q9EP73 19-238): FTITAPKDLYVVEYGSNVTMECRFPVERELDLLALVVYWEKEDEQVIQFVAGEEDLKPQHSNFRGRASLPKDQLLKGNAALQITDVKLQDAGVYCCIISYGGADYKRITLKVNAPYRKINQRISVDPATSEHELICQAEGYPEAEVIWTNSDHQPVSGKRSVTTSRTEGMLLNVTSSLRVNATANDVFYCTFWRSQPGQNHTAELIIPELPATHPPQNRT
T5 sequence (Q9NZQ7 19-290): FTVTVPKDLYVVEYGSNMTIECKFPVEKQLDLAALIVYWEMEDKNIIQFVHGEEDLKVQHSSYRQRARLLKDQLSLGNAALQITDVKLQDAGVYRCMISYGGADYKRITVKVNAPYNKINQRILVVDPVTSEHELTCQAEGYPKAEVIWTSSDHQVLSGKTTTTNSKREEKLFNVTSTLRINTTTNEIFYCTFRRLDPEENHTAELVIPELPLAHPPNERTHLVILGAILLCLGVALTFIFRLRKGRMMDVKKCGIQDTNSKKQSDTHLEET

| Binder | Kd [1] | Kd [2] | Kd (mouse PD-L1-Ig) | Kd (mouse PD-L2-Ig) | fold tighter binding than wild type (avidity) [3] | fold tighter binding than wild type (avidity) [4] |
| --- | --- | --- | --- | --- | --- | --- |
| human PD-1, wild-type, soluble (monovalent) (receptor, Used as soluble analyte in SPR; A soluble form would lack the transmembrane and intracellular parts; the Ig construct uses […]; also called huPD-1; hu PD-1) not shown | 188 nM | 190 nM | 3810 nM | 270 nM |  |  |
| human PD-1 A132L high-affinity (HA) mutant, soluble (monovalent) (receptor, Used as soluble analyte in SPR; also called huA132L; hu HA PD-1) not shown | 6.5 nM | 6.5 nM | 230 nM | 29 nM |  |  |
| human high-affinity PD-1 Ig (HA huPD-1-Ig), A132L PD-1 fused to human IgG1 Fc (Fc fusion, also called HA PD-1 Ig; mutant PD-1 Ig) PGWFLDSPDRPWNPPTFSPALLVVTEGDNATFTCSFSNTSESFVLNWYRMSPSNQTDKLAAFPEDRSQPGQDCRFRVTQLPNGRDFHMSVVRARRNDSGTYLCGAISLAPKLQIKESLRAELRVTERRAEVPTAHPSPSPRSAGQFQVDLVPRGSGGS[… human IgG1 Fc and a few adjoining residues …] |  |  |  |  | > 100 fold | > 100 fold |
